According to patent US7592316B2, “Peptides as NS3-serine protease inhibitors of hepatitis C virus” (Schering Corporation, priority 2000, dated 2009):
*1 amine or outer side, *2 acyl side, *3 side chain or, on linkers, in order; H or OH if unused. Where a SMILES comes first, the peptide text is derived from it. [ ]: non-standard residue; d: D form. The star is where a group is joined. ξ: configuration not given here. Pro(3R,4S-CMe2) = CC1(C)[C@@H]2[C@@H](C(=O)O)NC[C@@H]21; Benzoyl(2-COOH-4,5-Cl2) = O=C(O)c1cc(Cl)c(Cl)cc1C(=O)*; ξ(3-Amino-2-oxopentanoyl) = CCC(N[*:1])C(=O)C(=O)[*:2]; Pro(3S,4R-CCl2) = O=C(O)[C@H]1NC[C@H]2[C@@H]1C2(Cl)Cl; Pro(3S,4R-CMe2) = CC1(C)[C@H]2[C@@H](C(=O)O)NC[C@H]21; Cyclopropanecarbonyl(1-Ph) = O=C(C1(c2ccccc2)CC1)*; Isobutoxycarbonyl(1S-Me) = CC(C)[C@H](C)OC(=O)*; ξLeu(ψCOCO) = CC(C)CC(N[*:1])C(=O)C(=O)[*:2]; Benzoyl(2-NO2) = O=C(c1ccccc1[N+](=O)[O-])*; Benzoyl(3-COOH) = O=C(O)c1cccc(C(=O)*)c1; Benzoyl(4-COOH) = O=C(O)c1ccc(C(=O)*)cc1; Benzoyl(2-Ph) = O=C(c1ccccc1-c1ccccc1)*; Pro(4,4-Me2) = CC1(C)CN[C@H](C(=O)O)C1; CF3C(Me)2OCO = CC(C)(OC(=O)*)C(F)(F)F; X32 = O=C(C(=O)[*:2])C(CC1CCC1)N[*:1]; Butanoyl(3,3-Me2) = CC(C)(C)CC(=O)*; X8 = O=C(C(=O)[*:2])C(CC1CC1)N[*:1]; ξPhg(3-Cl) = NC(C(=O)O)c1cccc(Cl)c1; Igl = N[C@H](C(=O)O)C1Cc2ccccc2C1; X4 = CCCCC(N[*:1])C(=O)C(=O)[*:2]; Hyp = O=C(O)[C@@H]1C[C@@H](O)CN1; X2 = CCCC(N[*:1])C(=O)C(=O)[*:2]; Aad = N[C@@H](CCCC(=O)O)C(=O)O; dPhg = N[C@@H](C(=O)O)c1ccccc1; Chg = N[C@H](C(=O)O)C1CCCCC1; Phg = N[C@H](C(=O)O)c1ccccc1; Tle = CC(C)(C)[C@H](N)C(=O)O; ξChg = NC(C(=O)O)C1CCCCC1; ξPhg = NC(C(=O)O)c1ccccc1; ξNle = CCCCC(N)C(=O)O; Bn = c1ccc(C*)cc1; OtBu = CC(C)(C)O*; tBu = CC(C)(C)*; MEM = COCCOC*

What follows are molecules tested against HCV NS3/NS4A protease (strain 1a) (Hepatitis C virus genotype 1a, UniProt P27958) (assay: biochemical). Conditions: Compounds prepared by Solid Phase Synthesis, Table 3; read-out: Ki* CLASS.

Compound	Ki
CCCC(NC(=O)[C@@H]1C[C@@H](OCc2ccccc2)CN1C(=O)C(NC(=O)c1cc(Cl)c(Cl)cc1C(=O)O)C1CCCCC1)C(=O)C(=O)NCC(=O)N[C@@H](C(N)=O)c1ccccc1 (stereo partly shown) ({Benzoyl(2-COOH-4,5-Cl2)}-[ξChg][Hyp](Bn)[X2]G[dPhg]-NH2)	> 1000 nM
CCCC(NC(=O)[C@@H]1C[C@@H](OCc2ccccc2)CN1C(=O)C(NC(=O)c1ccccc1[N+](=O)[O-])C1CCCCC1)C(=O)C(=O)NCC(=O)NC(C(N)=O)c1ccccc1 (stereo partly shown) ({Benzoyl(2-NO2)}-[ξChg][Hyp](Bn)[X2]G[ξPhg]-NH2)	1 to 100 nM
CCCC(NC(=O)[C@@H]1C[C@@H](OCc2ccccc2)CN1C(=O)C(NC(=O)c1ccccc1[N+](=O)[O-])C1CCCCC1)C(=O)C(=O)NCC(=O)NC(C(=O)O)c1ccccc1 (stereo partly shown) ({Benzoyl(2-NO2)}-[ξChg][Hyp](Bn)[X2]G[ξPhg]-OH)	1 to 100 nM
CCCCC(NC(=O)[C@@H]1C[C@@H](OCc2ccccc2)CN1C(=O)C(NC(=O)c1ccccc1[N+](=O)[O-])C1CCCCC1)C(=O)C(=O)NCC(=O)NC(C(N)=O)c1ccccc1 (stereo partly shown) ({Benzoyl(2-NO2)}-[ξChg][Hyp](Bn)[X4]G[ξPhg]-NH2)	101 to 1000 nM
CCCCC(NC(=O)[C@@H]1C[C@@H](OCc2ccccc2)CN1C(=O)C(NC(=O)c1ccccc1-c1ccccc1)C1CCCCC1)C(=O)C(=O)NCC(=O)NC(C(N)=O)c1ccccc1 (stereo partly shown) ({Benzoyl(2-Ph)}-[ξChg][Hyp](Bn)[X4]G[ξPhg]-NH2)	> 1000 nM
CCCC(NC(=O)[C@@H]1C[C@@H](OCc2ccccc2)CN1C(=O)[C@H](CCCC(=O)OC(C)(C)C)NC(=O)c1cccc(C(=O)O)c1)C(=O)C(=O)NCC(=O)N[C@H](C(N)=O)c1ccccc1 (stereo partly shown) ({Benzoyl(3-COOH)}-[Aad](OtBu)[Hyp](Bn)[X2]G[Phg]-NH2)	> 1000 nM
CCCC(NC(=O)[C@@H]1C[C@@H](OCc2ccccc2)CN1C(=O)[C@H](CCCC(=O)O)NC(=O)c1cccc(C(=O)O)c1)C(=O)C(=O)NCC(=O)N[C@H](C(N)=O)c1ccccc1 (stereo partly shown) ({Benzoyl(3-COOH)}-[Aad][Hyp](Bn)[X2]G[Phg]-NH2)	> 1000 nM
CCCC(NC(=O)[C@@H]1C[C@@H](OC(C)(C)C)CN1C(=O)[C@@H](NC(=O)c1cccc(C(=O)O)c1)C1CCCCC1)C(=O)C(=O)NCC(=O)N[C@H](C(N)=O)c1ccccc1 (stereo partly shown) ({Benzoyl(3-COOH)}-[Chg][Hyp](tBu)[X2]G[Phg]-NH2)	101 to 1000 nM
CCCC(NC(=O)[C@@H]1C[C@@H](OC(C)(C)C)CN1C(=O)[C@@H](NC(=O)c1cccc(C(=O)O)c1)C1CCCCC1)C(=O)C(=O)NCC(=O)NC(C(N)=O)c1cccc(Cl)c1 (stereo partly shown) ({Benzoyl(3-COOH)}-[Chg][Hyp](tBu)[X2]G[ξPhg(3-Cl)]-NH2)	101 to 1000 nM
CCC(NC(=O)[C@@H]1C[C@@H](OC(C)(C)C)CN1C(=O)[C@@H](NC(=O)c1cccc(C(=O)O)c1)C1CCCCC1)C(=O)C(=O)NCC(=O)N[C@H](C(N)=O)c1ccccc1 (stereo partly shown) ({Benzoyl(3-COOH)}-[Chg][Hyp](tBu)[ξ(3-Amino-2-oxopentanoyl)]G[Phg]-NH2)	> 1000 nM
CC(C)CC(NC(=O)[C@@H]1C[C@@H](OC(C)(C)C)CN1C(=O)[C@@H](NC(=O)c1cccc(C(=O)O)c1)C1CCCCC1)C(=O)C(=O)NCC(=O)N[C@H](C(N)=O)c1ccccc1 (stereo partly shown) ({Benzoyl(3-COOH)}-[Chg][Hyp](tBu)[ξLeu(ψCOCO)]G[Phg]-NH2)	> 1000 nM
CCCC(NC(=O)[C@@H]1C[C@@H](OCc2ccccc2)CN1C(=O)C(NC(=O)c1cccc(C(=O)O)c1)C1CCCCC1)C(=O)C(=O)NCC(=O)N[C@@H](C(N)=O)c1ccccc1 (stereo partly shown) ({Benzoyl(3-COOH)}-[ξChg][Hyp](Bn)[X2]G[dPhg]-NH2)	101 to 1000 nM
CCCCC(NC(=O)CNC(=O)C(=O)C(CCC)NC(=O)[C@@H]1C[C@@H](OCOCCOC)CN1C(=O)C(NC(=O)c1cccc(C(=O)O)c1)C1CCCCC1)C(N)=O (stereo partly shown) ({Benzoyl(3-COOH)}-[ξChg][Hyp](MEM)[X2]G[ξNle]-NH2)	> 1000 nM
CCCC(NC(=O)[C@@H]1C[C@@H](OC(C)(C)C)CN1C(=O)[C@@H](NC(=O)c1ccc(C(=O)O)cc1)C1CCCCC1)C(=O)C(=O)NCC(=O)NC(C(N)=O)c1cccc(Cl)c1 (stereo partly shown) ({Benzoyl(4-COOH)}-[Chg][Hyp](tBu)[X2]G[ξPhg(3-Cl)]-NH2)	101 to 1000 nM
CC(C)CC(NC(=O)[C@@H]1C[C@@H](OC(C)(C)C)CN1C(=O)[C@@H](NC(=O)c1ccc(C(=O)O)cc1)C1CCCCC1)C(=O)C(=O)NCC(=O)N[C@H](C(N)=O)c1ccccc1 (stereo partly shown) ({Benzoyl(4-COOH)}-[Chg][Hyp](tBu)[ξLeu(ψCOCO)]G[Phg]-NH2)	> 1000 nM
CCCCC(NC(=O)CNC(=O)C(=O)C(CCC)NC(=O)[C@@H]1C[C@@H](OC(C)(C)C)CN1C(=O)C(NC(=O)CC(C)(C)C)C1CCCCC1)C(N)=O (stereo partly shown) ({Butanoyl(3,3-Me2)}-[ξChg][Hyp](tBu)[X2]G[ξNle]-NH2)	> 1000 nM
CCCCC(NC(=O)CNC(=O)C(=O)C(CCC)NC(=O)[C@@H]1C[C@@H](OCOCCOC)CN1C(=O)C(NC(=O)C1(c2ccccc2)CC1)C1CCCCC1)C(N)=O (stereo partly shown) ({Cyclopropanecarbonyl(1-Ph)}-[ξChg][Hyp](MEM)[X2]G[ξNle]-NH2)	> 1000 nM

Same assay, conditions: Table 5; HCV NS3/NS4A protease, spectrophotometric assay, 30° C., pH 6.5; read-out: Ki* Range

Compound	Ki
CCCC(NC(=O)[C@@H]1[C@H]2[C@@H](CN1C(=O)[C@@H](NC(=O)O[C@@H](C)C(C)C)C1Cc3ccccc3C1)C2(C)C)C(=O)C(=O)NCC(=O)N[C@H](C(=O)N(C)C)c1ccccc1 (stereo partly drawn) ({Isobutoxycarbonyl(1S-Me)}-[Igl][Pro(3S,4R-CMe2)][X2]G[Phg]-NMe2)	1 to 100 nM
CCCC(NC(=O)[C@@H]1CC(C)(C)CN1C(=O)[C@@H](NC(=O)O[C@@H](C)C(C)C)C(C)(C)C)C(=O)C(=O)NCC(=O)N[C@H](C(=O)N(C)C)c1ccccc1 (stereo partly drawn) ({Isobutoxycarbonyl(1S-Me)}-[Tle][Pro(4,4-Me2)][X2]G[Phg]-NMe2)	1 to 100 nM
CCCCC(NC(=O)[C@@H]1CC(C)(C)CN1C(=O)[C@@H](NC(=O)O[C@@H](C)C(C)C)C(C)(C)C)C(=O)C(=O)NCC(=O)N[C@H](C(=O)N(C)C)c1ccccc1 (stereo partly drawn) ({Isobutoxycarbonyl(1S-Me)}-[Tle][Pro(4,4-Me2)][X4]G[Phg]-NMe2)	1 to 100 nM

Same assay, conditions: Table 6; HCV NS3/NS4A protease, 30° C., pH 6.5; read-out: Ki*

Compound	Ki
CC(C)[C@H](NC(=O)OC(C)(C)C(F)(F)F)C(=O)N1C[C@H]2[C@@H]([C@H]1C(=O)NC(CC1CC1)C(=O)C(=O)NCC(=O)N[C@H](C(=O)N(C)C)c1ccccc1)C2(C)C (stereo partly drawn) ({CF3C(Me)2OCO}-V[Pro(3R,4S-CMe2)][X8]G[Phg]-NMe2)	1 to 100 nM
CN(C)C(=O)[C@@H](NC(=O)CNC(=O)C(=O)C(CC1CC1)NC(=O)[C@@H]1[C@@H]2[C@H](CN1C(=O)[C@@H](NC(=O)OC(C)(C)C(F)(F)F)C1CCCCC1)C2(C)C)c1ccccc1 (stereo partly drawn) ({CF3C(Me)2OCO}-[Chg][Pro(3R,4S-CMe2)][X8]G[Phg]-NMe2)	1 to 100 nM
CN(C)C(=O)[C@@H](NC(=O)CNC(=O)C(=O)C(CC1CCC1)NC(=O)[C@@H]1[C@@H]2[C@H](CN1C(=O)[C@@H](NC(=O)OC(C)(C)C(F)(F)F)C1CCCCC1)C2(C)C)c1ccccc1 (stereo partly drawn) ({CF3C(Me)2OCO}-[Chg][Pro(3R,4S-CMe2)][X32]G[Phg]-NMe2)	1 to 100 nM
CN(C)C(=O)[C@@H](NC(=O)CNC(=O)C(=O)C(CC1CC1)NC(=O)[C@@H]1[C@@H]2[C@H](CN1C(=O)[C@@H](NC(=O)OC(C)(C)C(F)(F)F)C(C)(C)C)C2(C)C)c1ccccc1 (stereo partly drawn) ({CF3C(Me)2OCO}-[Tle][Pro(3R,4S-CMe2)][X8]G[Phg]-NMe2)	1 to 100 nM
CN(C)C(=O)C(NC(=O)CNC(=O)C(=O)C(CC1CC1)NC(=O)[C@@H]1[C@@H]2[C@H](CN1C(=O)[C@@H](NC(=O)OC(C)(C)C(F)(F)F)C(C)(C)C)C2(Cl)Cl)c1ccccc1 (stereo partly drawn) ({CF3C(Me)2OCO}-[Tle][Pro(3S,4R-CCl2)][X8]G[ξPhg]-NMe2)	1 to 100 nM
